The supplement of paper PMC12217912
Some of the results follow. The full chains were built here from the parent and the listed change. Values near 0.05 are background.

B1: TEV protease; numbered along this chain (parent)
chain: MGESLFKGPRDYNPISSSICHLTNESDGHTTSLYGIGFGPFIITNKHLFRRNNGTLVVQSLHGVFKVKDTTTLQQHLVDGRDMIIIRMPKDFPPFPQKLKFREPQREERICLVTTNFQTKSMSSMVSDTSCTFPSGDGIFWKHWIQTKDGQCGSPLVSTRDGFIVGIHSASNFTNTNNYFTSVPKNFMELLTNQEAQQWVSGWRLNADSVLWGGHKVFMVKPEEPFQPVKEATQL

Variants of: B1
Test: raw area under fraction-flipped curve 0-4 h after induction (AUC4h, not background-subtracted), DNA-recorder readout of cleavage of the substrate (dimensionless); higher = more cleavage of the substrate by the protease variant
Settings: temperature: 34 °C; time window: 0-4 h after rhamnose induction
Description: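 In vivo DNA recorder in E. coli TOP10(DE3) ΔrhaA at 34 °C. Each TEVp single-site mutant (parent TEVp 0) is paired with a single-site variant of the 7-mer TEVs (canonical ENLYFQ|S). The substrate sits between flexible linkers in a Bxb1-sfGFP-TEVs-SsrA fusion, so cleavage stabilises Bxb1 and speeds flipping of a recombination array, read by NGS. The value is the raw area under the fraction-flipped curve over 0-4 h after rhamnose induction (AUC4h), with ≥20 reads per time point. It is not background-subtracted; inactive controls average about 0.047.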
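Further: Bxb1 expression induced with 0.2% (w/v) L-rhamnose at OD600 near 0.5, cultures sampled hourly, flipped fraction per protease–substrate barcode pair counted by paired-end Illumina sequencing.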

Variant	area with substrate ENCYFQS	area with substrate ENDYFQS	area with substrate ENEYFQS	area with substrate ENFYFQS	area with substrate ENHYFQS	area with substrate ENIYFQS	area with substrate ENKYFQS	area with substrate ENMYFQS	area with substrate ENNYFQS	area with substrate ENQYFQS	area with substrate ENSYFQS	area with substrate ENTYFQS	area with substrate ENVYFQS	area with substrate ENGYFQS	area with substrate ENRYFQS	area with substrate ENYYFQS	area with substrate ENPYFQS	area with substrate ENWYFQS
MGESLFKGPRDYNPISSSICHLTNESDGHTTSLYGIGFGPFIITNKHLFRRNNGTLVVQSLHGVFKVKDTTTLQQHLVDGRDMIIIRMPKDFPPFPQKLKFREPQREERICYVTTNFQTKSMSSMVSDTSCTFPSGDGIFWKHWIQTKDGQCGSPLVSTRDGFIVGIHSASNFTNTNNYFTSVPKNFMELLTNQEAQQWVSGWRLNADSVLWGGHKVFMVKPEEPFQPVKEATQL [L112Y]	0.0687	0.0556	0.0644	0.052	0.0605	0.072	0.0659	0.0634	0.043	0.0609	0.0632	0.0554	0.0594					
MGESLFKGPRDYNPISSSICHLTNESDGHTTSLYGIGFGPFIITNKHLFRRNNGTLVVQSLHGVFKVKDTTTLQQHLVDGRDMIIIRMPKDFPPFPQKLKFREPQREERICLVTTNFQTKSMSSMVSDTSCTFPSGDGIFWKHWIQTKMGQCGSPLVSTRDGFIVGIHSASNFTNTNNYFTSVPKNFMELLTNQEAQQWVSGWRLNADSVLWGGHKVFMVKPEEPFQPVKEATQL [D149M]	0.0502		0.0748	0.058	0.0589	0.115	0.053	0.0488	0.0855	0.0625	0.0671	0.0614	0.0672	0.0487	0.0563	0.0909		
MGESLFKGPRDYNPISSSICHLTNESDGHTTSLYGIGFGPFIITNKHLFRRNNGTLVVQSLHGVFKVKDTTTLQQHLVDGNDMIIIRMPKDFPPFPQKLKFREPQREERICLVTTNFQTKSMSSMVSDTSCTFPSGDGIFWKHWIQTKDGQCGSPLVSTRDGFIVGIHSASNFTNTNNYFTSVPKNFMELLTNQEAQQWVSGWRLNADSVLWGGHKVFMVKPEEPFQPVKEATQL [R81N]	0.0505	0.0633	0.0648		0.058	0.0761	0.0716			0.0488	0.05		0.052	0.063	0.0657			
MGESLFKGPRDYNPISSSICHLTNESDGHTTSLYGIGFGPFIITNKHLFRRNNGTLVVQSLHGVFKVKDTTTLQQHLVDGRDMIIIRMPKDFPPFPQKLKFREPQREERICLVTTNFQTKSMSSMVSDTSCTFPSGDGIFWKHWIQTKDGQCGSPLFSTRDGFIVGIHSASNFTNTNNYFTSVPKNFMELLTNQEAQQWVSGWRLNADSVLWGGHKVFMVKPEEPFQPVKEATQL [V157F]	0.0637	0.0535	0.0608	0.0544	0.0574		0.0611		0.0746	0.0563	0.103	0.0507	0.0638	0.0519	0.0613		0.0476	0.0651
MGESLFKGPRDYNPISSSICHLTNESDGHTTSLYGIGFGPFIITNKHLFRRNNGTLVVQSLHGVFKVKDTTTLQQHLVDGRDMIIIRMPKDFPPFVQKLKFREPQREERICLVTTNFQTKSMSSMVSDTSCTFPSGDGIFWKHWIQTKDGQCGSPLVSTRDGFIVGIHSASNFTNTNNYFTSVPKNFMELLTNQEAQQWVSGWRLNADSVLWGGHKVFMVKPEEPFQPVKEATQL [P96V]	0.0622	0.06	0.0593	0.0693	0.0666	0.0851	0.0609		0.0573	0.0543	0.0674	0.0635	0.0596	0.0543	0.0558	0.057	0.0646	
MGESLFKGPRDYNPISSSICHLTNESDGHTTSLYGIGFGPFIITNKHLFRRNNGTLVVQSLHGVFKVKDTTTLQQHLVDGRDMIIIRMPKDFPPFNQKLKFREPQREERICLVTTNFQTKSMSSMVSDTSCTFPSGDGIFWKHWIQTKDGQCGSPLVSTRDGFIVGIHSASNFTNTNNYFTSVPKNFMELLTNQEAQQWVSGWRLNADSVLWGGHKVFMVKPEEPFQPVKEATQL [P96N]	0.0564		0.0567	0.0455	0.0523			0.0679	0.0536	0.0547	0.0551	0.0674	0.0778	0.0698	0.0584			0.0685
MGESLFKGPRDYNPISSSICHLTNESDGHTTSLYGIGFGPFIITNKHLFRRNNGTLVVQSLHGVFKVKDTTTLQQHLVDGRDMIIIRMPKDFPPFPQKLKFREPQREERICLVTTNFQTKSMSSMVSDTSCTFPSWDGIFWKHWIQTKDGQCGSPLVSTRDGFIVGIHSASNFTNTNNYFTSVPKNFMELLTNQEAQQWVSGWRLNADSVLWGGHKVFMVKPEEPFQPVKEATQL [G136W]	0.0709	0.0614	0.056	0.0356	0.0591		0.0453		0.0644	0.0527	0.0657	0.058	0.0703		0.051	0.0565	0.0594	0.0473
MGESLFKGPRDYNPISSSICHLTNESDGHTTSLYGIGFGPFIITNKHLFRRNNGTLVVQSLHGVFKVKDTTTLQQHLVDGRDMIIIRMPKDFPPFPQKLKFREPQREERICLVTTNFQTKSMSSMVSETSCTFPSGDGIFWKHWIQTKDGQCGSPLVSTRDGFIVGIHSASNFTNTNNYFTSVPKNFMELLTNQEAQQWVSGWRLNADSVLWGGHKVFMVKPEEPFQPVKEATQL [D128E]	0.072	0.0608			0.0593		0.0719		0.0405	0.0626		0.0746					0.0492	
